# Source: the RNAGym collection of RNA variant scans (doi:10.1073/pnas.2313332121)
# Variants at the background level are over-represented here.
# B1: TPR 5TU (parent)
# chain: GGAUCUUCUCGAUCUAACAAAAAAGACAAAUCUGCCACAAAGCUUGAGAGCAUCUUCGGAUGCAGAGGCGGCAGCCUUCGGUGGCGCGAUAGCGCCAACGUUCUCAACUAUGACACGCAAAACGCGUGCUCCGUUGAAUGGAGUUUAUCAUG
# Variants of: B1
# Experiment: polymerase ribozyme fitness, log enrichment relative to wild type (log ratio); higher = more active; in vitro selection for triplet polymerase activity
# In short: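 Genotype fitness is the logarithm of its enrichment divided by wild-type enrichment, using inverse-variance-weighted averages of replicates. That logarithm is base 2. Enrichment was measured by Illumina sequencing of input and output libraries from one triplicate in vitro selection round, with frozen incubation at −7 °C, on PCR-built, transcribed mutant libraries of each subunit of a heterodimeric triplet polymerase ribozyme, retaining genotypes with ≥10 input reads and ≥1 read per output.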
row,Variant,polymerase ribozyme fitness (log ratio)
1,GGAUCUUCUCGAUCUAACAAAAAAGACAAAUCAGCCACAAAGCUUGAGAGCAUCUUCGGAUGGAGAGGCGGCAGCCUUCGGUGGCGCGAUAGCGCCAACGGUCUCAACUAUGACACGCAAAACGCGUGCUCCGUUGAAUGGAGCUUAUGAUG [U33A C63G U101G U144C C149G],≤ -4.2
2,GGAUCUUCUCGAUCUAACAAAAAAGACAAAUCAGCCACAAAGCUUGAGAGCAUCUUCGGAUGCAGAGGCGGUAGCCUUCGGUGGCUCGAUAGCGCCAACGUUCUCAACUAUGACACGCAAAACGCGUGCUCCGUUGAAUGGAGUUUAUCAUG [U33A C72U G86U],≤ -4.2
3,GGAUCUUCUCGAUCUAACAAAAAAGACAAAUCAGCCACAAAGCUUGAGAGCAUCUUCGGAUGCAGAGGCGGCAGCCUUCGGUGGCGCGAUAGCGACAACGUUCUCAACUAUGACACGCAAAACGCCUGCUCCGUUGACUGGAGUAUAUCAUG [U33A C95A G126C A138C U145A],≤ -4.2
4,GGAUCUUCUCGAUCUAACAAAAAAGACAAAUCAGCCACAAAGCUUGAGACCCUCUUCGGAUGCAGAGGCGGCAGCCUUCGGUGGCGAGAUAGCGCUAACGUUCUUAACUAUGACACGCAAAACGCGGGCUCCGUUGAAUGGAGAUUAUCAUG [U33A G50C A52C C87A C96U C105U U127G U144A],≤ -4.2
5,GGAUCUUCUCGAUCUAACAAAAAAGACAAAUCAGCCACAAAGCUUGAGAGCAUCUUCAGAUGCAGAGGCGGCAGCCUUCGGUGGCGCGAUAGCGCAAACGUUCUCAACUAUGACACGCAAAACGCGUGCUCCGUUGAAUGGAGUUUAUCAUU [U33A G58A C96A G152U],-3.79
6,GGAUCUUCUCGAUCUAACAAAAAAGACAAAUCAGCCACAAAGCUUGAGAGCAUCUUCGUAAGCAGAGGCGGCAGCCUUCGGUGGCGCGAUAGCGCCAACGUUCUCAACUAUGACACGCAAAACGCGUGCUCCGUUGAAUGGAGUUUAUCAUG [U33A G59U U61A],≤ -4.2
7,GGAUCUUCUCGAUCUAACAAAAAAGACAAAUCAGCCACAAAGCUUGAGAGCAUCUUCGGAUGCAGAGGCGGCAGCCUUCAGUGGCGCGAUAGCGCCAACGUUCUCAACUAUGACACGCAAAACGCGUGCUCCGUUGAAUGGAGUUUAUCAUG [U33A G80A],-3.68
8,GGAUCUUCUCGAUCUAACAAAAAAGACAAAUCAGCCACAAAGCUUGAGAGCAUCUUCGGAUGCAGAGGCGGCAGCCUUCAGUGGCGCGAUAGCGCUAACGUUCUCAACUAUGACACGCAAAACGCGUGCUCCGUUGAAUGGAGUUUAUCAUG [U33A G80A C96U],≤ -4.2
9,GGAUCUUCUCGAUCUAACAAAAAAGACAAAUCAGCCACAAAGCUUGAGAGCAUCUUCGGAUGCAGAGGCGGCAGCCUUCGGUGGCGCGAUAACGCCAACGUGCUCUACUAUGACACGCAAAACGCGUGCUCCUUUGAACGGAGUUUAUCAUG [U33A G92A U102G A106U G133U U139C],≤ -4.2
10,GGAUCUUCUCGAUCUAACAAAAAAGACAAAUCAGCCACAAAGCAUGAGAGCAUCUUCGGAUGCAGAGGCGGCAGCCUUCGGUGGCGCGAUAGCGCCAACGUUCUCAACUAUGACACGCAAAACGCGCGCUCCGUUGAAUGGAUUUUAUCAUG [U33A U44A U127C G143U],≤ -4.2
11,GGAUCUUCUCGAUCUAACAAAAAAGACAAAUCAGCCACAAAGCUUGAGAGCAUCUACGGAUGCAGAGGCGGCAGCCUUCGGUGGCGCGAAAGCGCCAACGUUCUCAACUAUGACACGCAAACCGCGUGCUCCGUUGAAUGGAGUUUAUCAGG [U33A U56A U90A A122C U151G],≤ -4.2
12,GGAUCUUCUCGAUCUAACAAAAAAGACAAAUCAGCCACAAAGCUUGAGAGCAUCUUCGGAAGCAGAGGCGGCAGCCUUCGGUGGCGCGAUAGCGCCAACGUUCUCAACUAUGACACGCAAAACGCGUGCUCCGUUGAAUGGAGUUUAUCAUG [U33A U61A],-3.64
13,GGAUCUUCUCGAUCUAACAAAAAAGACAAAUCAGCCACAAAGCUUGAGAGCAUCUUCGGAUGCAGAGGCGGCAGCCUUCGGUGGCGCGAUAGCGCCAACGUCCUCAUCUAUGACACGCAAAACGAGUGCUCCGUUGAAUGGAGUUUAUCAUG [U33A U102C A107U C125A],≤ -4.2
14,GGAUCUUCUCGAUCUAACAAAAAAGACAAAUCAGCCACAAAGCUUGAGAGCAUCUUCGGAUGCAGAGGCGGCAGCCUUCGGUGGCGCGAUAGCGCCAACGUUCUCAACUAUGACACGCAAAACGCGUGCUCCGUUGAAUGGAGUUUAACAUG [U33A U148A],≤ -4.2
15,GGAUCUUCUCGAUCUAACAAAAAAGACAAAUCCGCCACACAGCUUGAGAGCAUCUUCGGAUGCAGAGUCGGCAGCCUUCGGUGGCGCGAUAGCGACAACGUCCUCAACUAUGACACGCAAAACGCGUGCUCGGUUGAAUGGAGUUUAUCAUG [U33C A40C G68U C95A U102C C132G],-3.48
16,GGAUCUUCUCGAUCUAACAAAAAAGACAAAUCCGCCACAAAGCUUGCGAGCAUCUUCGCAUGCAGAGGCGGCAGCAUUCGGUGGCGCGAUAUCGCCAACGUUCCCAACUAUGACAAGCAAAACGCGUGCUCCGUUGAAUGGAGUUUAUCAUG [U33C A47C G59C C76A G92U U104C C116A],≤ -4.2
17,GGAUCUUCUCGAUCUAACAAAAAAGACAAAUCCGCCACAAAGCUUGGGAGCAUCUUCGGAUGAUGAGGCGGCAGCCUUCGGUGGCGCGGUAGCGCCAAUGUUGUCAACUAUGACAAGCAAAACGGGUGCUCCGUUGAAUGGAUUUUAUCAUG [U33C A47G C63A A64U A89G C99U C103G C116A C125G G143U],≤ -4.2
18,GGAUCUUCUCGAUCUAACAAAAAAGACAAAUCCGCCACAAAGCUUGAGUGCAUCUUCGGAUGCAGAGGCAGCAGCCUUCCGUGGCGCGAUAGCGCCAACGUUCUCAACUAUGACACGCAAAACGCGUGCUCCGUUGAAUGGAGUUUAUCAUG [U33C A49U G70A G80C],≤ -4.2
19,GGAUCUUCUCGAUCUAACAAAAAAGACAAAUCCGCCACAAAGCUUGAGAGCGUCUUCGGAUGCAGAGGCGGCAGCCUUAGGUGGCGCGAUAGCGCCAACGUUCUCAACUAUUACACGCAAAACGCGUGCUCCGUUGAAUGGAGUUUAUCAUG [U33C A52G C79A G112U],≤ -4.2
